# Reference: the supplement of paper PMC8728848
# The list shows a part of the results.
# Experiments:
# Assay in all cases: glycan array binding signal (z-score within array); higher = stronger binding
# Conditions in all cases: glycan notation: IUPAC condensed, linker removed
# [1] = molecular target: GlcNAc(b1-3)Gal(b1-4)GlcNAc(b1-3)Gal(b1-4)GlcNAc(b1-2)[GlcNAc(b1-3)Gal(b1-4)GlcNAc(b1-3)Gal(b1-4)GlcNAc(b1-6)]Man(a1-6)[GlcNAc(b1-3)Gal(b1-4)GlcNAc(b1-3)Gal(b1-4)GlcNAc(b1-2)Man(a1-3)]Man(b1-4)GlcNAc(b1-4)[Fuc(a1-6)]GlcNAc
# Method in brief: (§1)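 The binding signal is a Z-score computed within each array. Data were drawn from 3228 arrays in the Consortium for Functional Glycomics database, restricted to those with a known protein sequence. Scores were averaged over arrays of the same protein sequence at different concentrations or buffers, and over linkers, and negative values can be taken as non-binding.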
# [2] = molecular target: GlcNAc(b1-3)Gal(b1-4)GlcNAc(b1-3)Gal(b1-4)GlcNAc(b1-3)Gal(b1-4)GlcNAc(b1-2)Man(a1-3)[GlcNAc(b1-3)Gal(b1-4)GlcNAc(b1-3)Gal(b1-4)GlcNAc(b1-3)Gal(b1-4)GlcNAc(b1-2)Man(a1-6)]Man(b1-4)GlcNAc(b1-4)GlcNAc
# Method in brief: as §1
# [3] = molecular target: GlcNAc(b1-3)Gal(b1-4)GlcNAc(b1-3)Gal(b1-4)GlcNAc(b1-3)Gal(b1-4)GlcNAc(b1-2)Man(a1-3)[GlcNAc(b1-3)Gal(b1-4)GlcNAc(b1-3)Gal(b1-4)GlcNAc(b1-3)Gal(b1-4)GlcNAc(b1-2)Man(a1-6)]Man(b1-4)GlcNAc(b1-4)[Fuc(a1-6)]GlcNAc
# Method in brief: as §1
# [4] = molecular target: GlcNAc(b1-3)Gal(b1-4)GlcNAc(b1-3)Gal(b1-4)GlcNAc(b1-3)Gal(b1-4)GlcNAc(b1-2)[GlcNAc(b1-3)Gal(b1-4)GlcNAc(b1-3)Gal(b1-4)GlcNAc(b1-3)Gal(b1-4)GlcNAc(b1-6)]Man(a1-6)[GlcNAc(b1-3)Gal(b1-4)GlcNAc(b1-3)Gal(b1-4)GlcNAc(b1-3)Gal(b1-4)GlcNAc(b1-2)Man(a1-3)]Man(b1-4)GlcNAc(b1-4)[Fuc(a1-6)]GlcNAc
# Method in brief: as §1
# [5] = molecular target: GlcNAc(b1-3)Gal(b1-4)GlcNAc(b1-3)Gal(b1-4)GlcNAc(b1-3)Gal(b1-4)GlcNAc(b1-3)Gal(b1-4)GlcNAc(b1-2)Man(a1-3)[GlcNAc(b1-3)Gal(b1-4)GlcNAc(b1-3)Gal(b1-4)GlcNAc(b1-3)Gal(b1-4)GlcNAc(b1-3)Gal(b1-4)GlcNAc(b1-2)Man(a1-6)]Man(b1-4)GlcNAc(b1-4)GlcNAc
# Method in brief: as §1
# [6] = molecular target: GlcNAc(b1-3)Gal(b1-4)GlcNAc(b1-3)Gal(b1-4)GlcNAc(b1-3)Gal(b1-4)GlcNAc(b1-3)Gal(b1-4)GlcNAc(b1-2)Man(a1-3)[GlcNAc(b1-3)Gal(b1-4)GlcNAc(b1-3)Gal(b1-4)GlcNAc(b1-3)Gal(b1-4)GlcNAc(b1-3)Gal(b1-4)GlcNAc(b1-2)Man(a1-6)]Man(b1-4)GlcNAc(b1-4)[Fuc(a1-6)]GlcNAc
# Method in brief: as §1
# [7] = molecular target: GlcNAc(b1-3)Gal(b1-4)GlcNAc(b1-3)Gal(b1-4)GlcNAc(b1-3)Gal(b1-4)GlcNAc(b1-3)Gal(b1-4)GlcNAc(b1-2)[GlcNAc(b1-3)Gal(b1-4)GlcNAc(b1-3)Gal(b1-4)GlcNAc(b1-3)Gal(b1-4)GlcNAc(b1-3)Gal(b1-4)GlcNAc(b1-6)]Man(a1-6)[GlcNAc(b1-3)Gal(b1-4)GlcNAc(b1-3)Gal(b1-4)GlcNAc(b1-3)Gal(b1-4)GlcNAc(b1-3)Gal(b1-4)GlcNAc(b1-2)Man(a1-3)]Man(b1-4)GlcNAc(b1-4)[Fuc(a1-6)]GlcNAc
# Method in brief: as §1
# [8] = molecular target: GlcNAc(b1-3)Gal(b1-4)GlcNAc(b1-3)Gal(b1-4)GlcNAc(b1-3)GalNAc
# Method in brief: as §1
# [9] = molecular target: GlcNAc(b1-3)Gal(b1-4)GlcNAc(b1-3)GalNAc
# Method in brief: as §1
# [10] = molecular target: GlcNAc(b1-3)Gal(b1-4)GlcNAc(b1-3)[GlcNAc(b1-3)Gal(b1-4)GlcNAc(b1-3)]GalNAc
# Method in brief: as §1
# [11] = molecular target: GlcNAc(b1-3)Gal(b1-4)GlcNAc(b1-6)[Gal(b1-3)]GalNAc
# Method in brief: as §1
# [12] = molecular target: GlcNAc(b1-3)Gal(b1-4)GlcNAc(b1-6)[GlcNAc(b1-3)Gal(b1-3)]GalNAc
# Method in brief: as §1
# [13] = molecular target: GlcNAc(b1-3)Gal(b1-4)GlcNAc(b1-6)[GlcNAc(b1-3)]Gal(b1-4)GlcNAc
# Method in brief: as §1
# [14] = molecular target: GlcNAc(b1-3)GalNAc
# Method in brief: as §1
# [15] = molecular target: GlcNAc(b1-3)Man
# Method in brief: as §1
# [16] = molecular target: GlcNAc(b1-3)[GlcNAc(b1-4)][GlcNAc(b1-6)]GlcNAc
# Method in brief: as §1
# [17] = molecular target: GlcNAc(b1-3)[GlcNAc(b1-6)]Gal(b1-4)GlcNAc
# Method in brief: as §1
# [18] = molecular target: GlcNAc(b1-3)[GlcNAc(b1-6)]GalNAc
# Method in brief: as §1
# [19] = molecular target: GlcNAc(b1-4)Gal(b1-4)GlcNAc
# Method in brief: as §1
# [20] = molecular target: GlcNAc(b1-4)GlcNAc
# Method in brief: as §1
# [21] = molecular target: GlcNAc(b1-4)GlcNAc(b1-4)GlcNAc
# Method in brief: as §1
# [22] = molecular target: GlcNAc(b1-4)GlcNAc(b1-4)GlcNAc(b1-4)GlcNAc(b1-4)GlcNAc
# Method in brief: as §1
# [23] = molecular target: GlcNAc(b1-4)GlcNAc(b1-4)GlcNAc(b1-4)GlcNAc(b1-4)GlcNAc(b1-4)GlcNAc
# Method in brief: as §1
binder,measurement,setting,value
Fm1D (Escherichia coli) (protein) FSCNVDGGSSIGAGTTSVYVNLDPVIQPGQNLVVDLSQHISCWNDYGGWYDTDHINLVQGSAFAGSLQSYKGSLYWNNVTYPFPLTTNTNVLDIGDKTPMPLPLKLYITPVGAAGGVVIKAGEVIARIHMYKIATLGSGNPRNFTWNIISNNSVVMPTHHHHHH,glycan array binding signal (z-score),[1],-0.136
same,glycan array binding signal (z-score),[2],-0.134
same,glycan array binding signal (z-score),[3],-0.139
same,glycan array binding signal (z-score),[4],-0.142
same,glycan array binding signal (z-score),[5],-0.141
same,glycan array binding signal (z-score),[6],-0.13
same,glycan array binding signal (z-score),[7],-0.136
same,glycan array binding signal (z-score),[8],-0.147
same,glycan array binding signal (z-score),[9],-0.145
same,glycan array binding signal (z-score),[10],-0.138
same,glycan array binding signal (z-score),[11],4.57
same,glycan array binding signal (z-score),[12],-0.145
same,glycan array binding signal (z-score),[13],-0.143
same,glycan array binding signal (z-score),[14],-0.143
same,glycan array binding signal (z-score),[15],-0.146
same,glycan array binding signal (z-score),[16],-0.145
same,glycan array binding signal (z-score),[17],-0.139
same,glycan array binding signal (z-score),[18],-0.143
same,glycan array binding signal (z-score),[19],-0.145
same,glycan array binding signal (z-score),[20],-0.137
same,glycan array binding signal (z-score),[21],-0.141
same,glycan array binding signal (z-score),[22],-0.141
same,glycan array binding signal (z-score),[23],-0.139
